Data: publication PMC4336329 (PLoS ONE, 2015)
In all, about 310,000 compounds went through this assay and about 2,200 (0.71%) showed an effect of 50% or more. The effect is printed as a negative number. Some of the results follow.

The compounds below were run against human ether-à-go-go-related gene (hERG) potassium channel (human, UniProt Q12809) (assay: primary screen, population patch clamp on CHO cells stably expressing hERG).
Chain of human ether-à-go-go-related gene (hERG) potassium channel (Q12809 whole entry, looked up): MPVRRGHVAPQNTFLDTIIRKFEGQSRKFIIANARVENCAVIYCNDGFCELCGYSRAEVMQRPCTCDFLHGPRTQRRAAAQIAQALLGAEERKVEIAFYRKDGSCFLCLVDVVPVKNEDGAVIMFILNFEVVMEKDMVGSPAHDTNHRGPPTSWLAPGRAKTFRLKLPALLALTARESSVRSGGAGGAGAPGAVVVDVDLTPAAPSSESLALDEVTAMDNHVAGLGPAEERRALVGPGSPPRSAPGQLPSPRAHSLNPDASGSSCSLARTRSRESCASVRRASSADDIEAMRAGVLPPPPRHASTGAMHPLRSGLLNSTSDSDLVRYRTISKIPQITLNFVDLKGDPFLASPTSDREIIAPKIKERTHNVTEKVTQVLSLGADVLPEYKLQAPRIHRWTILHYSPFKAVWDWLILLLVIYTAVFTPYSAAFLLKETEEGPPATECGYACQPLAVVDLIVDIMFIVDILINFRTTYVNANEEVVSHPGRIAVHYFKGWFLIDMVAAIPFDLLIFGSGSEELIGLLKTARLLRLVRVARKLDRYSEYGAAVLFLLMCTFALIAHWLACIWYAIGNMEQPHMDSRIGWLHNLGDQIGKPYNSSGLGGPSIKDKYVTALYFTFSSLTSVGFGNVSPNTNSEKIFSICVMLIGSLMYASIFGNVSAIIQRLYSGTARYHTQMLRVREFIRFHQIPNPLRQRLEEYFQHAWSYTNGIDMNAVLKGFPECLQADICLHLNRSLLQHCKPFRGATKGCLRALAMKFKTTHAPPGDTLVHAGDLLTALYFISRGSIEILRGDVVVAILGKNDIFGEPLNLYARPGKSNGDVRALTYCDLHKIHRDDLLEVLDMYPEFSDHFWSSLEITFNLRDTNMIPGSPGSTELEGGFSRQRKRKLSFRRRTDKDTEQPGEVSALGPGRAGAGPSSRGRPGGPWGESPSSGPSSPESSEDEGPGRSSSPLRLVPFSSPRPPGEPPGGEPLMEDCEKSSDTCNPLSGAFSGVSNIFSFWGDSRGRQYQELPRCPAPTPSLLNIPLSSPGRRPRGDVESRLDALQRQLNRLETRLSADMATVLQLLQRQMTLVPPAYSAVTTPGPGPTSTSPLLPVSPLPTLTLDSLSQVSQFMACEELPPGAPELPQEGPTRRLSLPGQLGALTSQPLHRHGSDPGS
With `COc1ccc(CCNc2nc(-c3cccc(NC(C)=O)c3)cs2)cc1OC` the “hERG current change (%, negative = inhibition) at 1uM” value was -5.96%.
For `CN1/C(=C\C(=O)c2cccnc2Cl)C(C)(C)c2ccccc21`, the “hERG current change (%, negative = inhibition) at 1uM” value was 6.79%.
With `CNC(=O)NC(=O)COC(=O)CCCOc1ccc(OC)cc1` the “hERG current change (%, negative = inhibition) at 1uM” value was 14.6%.
In the case of `CC(NC(=O)COC(=O)c1ccc2ccccc2n1)C1CC2CCC1C2` (stereo not drawn), the “hERG current change (%, negative = inhibition) at 1uM” value is reported as 15%.
With `CC(=O)c1ccc(-c2ccc(C(=O)N3CCCc4ccccc43)o2)cc1` the “hERG current change (%, negative = inhibition) at 1uM” value was 7.91%.
In the case of `CC1CN(C(=O)CSc2nc(N)cc(N)n2)CC(C)O1` (stereo not drawn), the “hERG current change (%, negative = inhibition) at 1uM” value is reported as 6.44%.
In the case of `COc1ccc(C(=O)Nc2cc(=O)n(C)c(=O)n2C)cc1`, the “hERG current change (%, negative = inhibition) at 1uM” value is reported as 5.06%.
For `Cn1nccc1C(=O)c1ccc(Cl)cc1`, the “hERG current change (%, negative = inhibition) at 1uM” value was 6.6%.
In the case of `CC(=O)NS(=O)(=O)c1ccc(N/C(N)=N/c2nc(C)cc(C)n2)cc1`, the “hERG current change (%, negative = inhibition) at 1uM” value is reported as 17.1%.
With `NC(=O)CN1C(=O)C2C3C=CC(C3)C2C1=O` (stereo not drawn) the “hERG current change (%, negative = inhibition) at 1uM” value was 12.5%.
For `Nn1c(SCC(=O)Nc2ccccc2Br)nnc1-c1ccco1`, the “hERG current change (%, negative = inhibition) at 1uM” value was 3.96%.
In the case of `CCO[C@@H]1OC(C(=O)O)=C[C@H](c2csc3ccccc23)[C@H]1CCCO`, the “hERG current change (%, negative = inhibition) at 1uM” value is reported as 4.69%.
For `CC(=O)Nc1cccc(NC(=O)CSc2ncc(C(=O)Nc3ccccc3)c(=O)n2C)c1`, the “hERG current change (%, negative = inhibition) at 1uM” value was 11.7%.
`CCS(=O)(=O)N1CCN(C(=O)c2ccccc2[N+](=O)[O-])CC1` was tested, and the “hERG current change (%, negative = inhibition) at 1uM” value was 13.7%.
In the case of `O=C(O)c1ccc(S(=O)(=O)N(Cc2ccccc2)C2CCCCC2)cc1`, the “hERG current change (%, negative = inhibition) at 1uM” value is reported as 8.15%.
`CCOC(=O)Cn1nc(C)n(-c2ccc(C(C)C)cc2)c1=O` was tested, and the “hERG current change (%, negative = inhibition) at 1uM” value was 7.27%.
With `Cl.NCCS(=O)(=O)NC1CCCCC1` the “hERG current change (%, negative = inhibition) at 1uM” value was 8.87%.
In the case of `COC(=O)CCC(=O)OC1(C)C(=O)C2=COC(c3ccc(OC)cc3)=CC2=C(Br)C1=O` (stereo not drawn), the “hERG current change (%, negative = inhibition) at 1uM” value is reported as 16%.
`O=C(OCCN=C1NS(=O)(=O)c2ccccc21)c1cccs1` was tested, and the “hERG current change (%, negative = inhibition) at 1uM” value was 12.3%.
With `O=C(Nc1cccc(C(F)(F)F)c1)C1=CC=CN2CCS(=O)(=O)N=C12` the “hERG current change (%, negative = inhibition) at 1uM” value was -2.87%.
For `COc1ccccc1/C=C1\SC(=S)N(CCC(=O)N2CCN(C)CC2)C1=O`, the “hERG current change (%, negative = inhibition) at 1uM” value was 14.8%.
`CC1CCN(C(=O)c2ccc(Br)c(S(=O)(=O)N3CCOCC3)c2)CC1` was tested, and the “hERG current change (%, negative = inhibition) at 1uM” value was 6.02%.
`O=C1c2ccccc2C(=O)c2c1ccc1c(=O)n(C3CCCCC3)[nH]c21` was tested, and the “hERG current change (%, negative = inhibition) at 1uM” value was 13.3%.
`CCCCN(Cc1cc2ccccc2[nH]c1=O)S(C)(=O)=O` was tested, and the “hERG current change (%, negative = inhibition) at 1uM” value was 5.11%.
In the case of `COc1ccc(N2C(=O)CC(S/C(N)=N/N=C/c3ccnc4ccccc34)C2=O)cc1` (stereo not drawn), the “hERG current change (%, negative = inhibition) at 1uM” value is reported as 15.4%.
For `C/C(=N/NS(=O)(=O)c1ccc(C)cc1)c1ccc2c(c1)OCO2`, the “hERG current change (%, negative = inhibition) at 1uM” value was 17.4%.
For `COc1ccccc1Nc1nnc(SCc2nnc(-c3cc(OC)c(OC)c(OC)c3)o2)s1`, the “hERG current change (%, negative = inhibition) at 1uM” value was 9.56%.
For `O=C(NCc1ccccc1)c1onc(CSc2ccc(F)cc2)c1C(=O)NCc1ccccc1`, the “hERG current change (%, negative = inhibition) at 1uM” value was 5.63%.
In the case of `CCSc1nnc(NC(=O)[C@@H](NC(=O)c2cccc(C)c2)C(C)C)s1`, the “hERG current change (%, negative = inhibition) at 1uM” value is reported as 12.7%.
In the case of `COCC(=O)N1CCC(Oc2ccc(C(=O)NC3Cc4ccccc4C3)cc2)CC1`, the “hERG current change (%, negative = inhibition) at 1uM” value is reported as 10.2%.
For `CC(=O)N1CCCc2cc(S(=O)(=O)NCc3ccc(C)cc3)ccc21`, the “hERG current change (%, negative = inhibition) at 1uM” value was 4.86%.
For `Cc1nn(-c2ccccc2)c(C)c1C(=O)OCC(=O)N1CCN(S(=O)(=O)c2ccccc2)CC1`, the “hERG current change (%, negative = inhibition) at 1uM” value was -6.28%.
`O=C1CC(C(=O)Nc2ccc(Cl)cc2[N+](=O)[O-])C2(CCCCC2)O1` (stereo not drawn) was tested, and the “hERG current change (%, negative = inhibition) at 1uM” value was 8.1%.
For `C=CCN(C(=O)c1ccc2snnc2c1)c1ccccc1`, the “hERG current change (%, negative = inhibition) at 1uM” value was 8.2%.
`O=C(c1cc(-c2ccccc2)on1)N1CCCC1` was tested, and the “hERG current change (%, negative = inhibition) at 1uM” value was 17%.
With `CC(C)Oc1ccc(S(=O)(=O)N2CCCCC2)cc1NC(=O)CC1OC(=O)c2ccccc21` (stereo not drawn) the “hERG current change (%, negative = inhibition) at 1uM” value was 6.12%.
For `O=C(NCCN1CCOCC1)c1cccc(S(=O)(=O)N2CCCCC2)c1`, the “hERG current change (%, negative = inhibition) at 1uM” value was 16.1%.
In the case of `CCOc1ccc(OCC(O)CNC2CCN(Cc3ccccc3)CC2)cc1.O=C(O)C(=O)O` (stereo not drawn), the “hERG current change (%, negative = inhibition) at 1uM” value is reported as -1.45%.
In the case of `CCC(C)NC(=O)c1ccccc1NC(=O)CN(c1ccc(OC)cc1)S(C)(=O)=O` (stereo not drawn), the “hERG current change (%, negative = inhibition) at 1uM” value is reported as 3.21%.
`CC(=O)Nc1ccc(/C=N/NC(=O)c2cccc(S(=O)(=O)N3CCOCC3)c2)cc1` was tested, and the “hERG current change (%, negative = inhibition) at 1uM” value was 14.1%.
In the case of `CC(C)C(c1nnnn1Cc1ccccc1)N(Cc1ccco1)Cc1cccs1` (stereo not drawn), the “hERG current change (%, negative = inhibition) at 1uM” value is reported as 12.8%.
In the case of `Cc1ccccc1-n1ncc2c1CC(C)(C)CC2NC(=O)CCN1Cc2ccccc2C1=O` (stereo not drawn), the “hERG current change (%, negative = inhibition) at 1uM” value is reported as 13.6%.
`Cc1ccc(Cl)c2sc(N3CCN(C(=O)c4ccco4)CC3)nc12` was tested, and the “hERG current change (%, negative = inhibition) at 1uM” value was -0.903%.
For `CCOC(=O)c1cc(C(C)(C)C)nc(SC)c1C#N`, the “hERG current change (%, negative = inhibition) at 1uM” value was 12.9%.
For `O=C(NCc1ccco1)c1ccc(COc2cccc3ccccc23)cc1`, the “hERG current change (%, negative = inhibition) at 1uM” value was 4.4%.
For `C=CCNC(=O)c1c(C(F)(F)F)nn(C)c1Cl`, the “hERG current change (%, negative = inhibition) at 1uM” value was 3.1%.
In the case of `O=C(O)c1ccccc1C(=O)c1cccs1`, the “hERG current change (%, negative = inhibition) at 1uM” value is reported as 12.2%.
`O=C(C1CCC1)N1CCc2cc(S(=O)(=O)NC3CCCc4ccccc43)ccc21` (stereo not drawn) was tested, and the “hERG current change (%, negative = inhibition) at 1uM” value was 6.8%.
`Cc1ccc2cccc(S(=O)(=O)Nc3ccc4c(c3)OCO4)c2n1` was tested, and the “hERG current change (%, negative = inhibition) at 1uM” value was -3.55%.
In the case of `CCOc1ccccc1NC(=O)CCNS(=O)(=O)c1ccccc1`, the “hERG current change (%, negative = inhibition) at 1uM” value is reported as 14.4%.
In the case of `Cc1ccc(NC(=O)c2csc3c2CCCC3)cc1`, the “hERG current change (%, negative = inhibition) at 1uM” value is reported as 10.9%.
For `CCCCNC(=O)[C@H](CSCc1ccccc1)N1Cc2ccccc2C1=O`, the “hERG current change (%, negative = inhibition) at 1uM” value was -28.1%.
For `O=C(CCC1CCN(C(=O)c2ccccc2Cl)CC1)NCc1ccc(F)cc1`, the “hERG current change (%, negative = inhibition) at 1uM” value was 4.08%.
`CCOC(=O)C1=C(C)NC(SC)=NC1c1ccccc1.I` (stereo not drawn) was tested, and the “hERG current change (%, negative = inhibition) at 1uM” value was 5.88%.
`CNC(=O)CO/N=C/c1ccc(N(C)C)cc1` was tested, and the “hERG current change (%, negative = inhibition) at 1uM” value was 10.7%.
For `c1cc(-n2nnc3cnccc32)ccn1`, the “hERG current change (%, negative = inhibition) at 1uM” value was 14.5%.
For `Cc1cccc(-c2nc3ccccc3c(=O)n2NC(=O)Cc2ccc(Cl)cc2)c1`, the “hERG current change (%, negative = inhibition) at 1uM” value was 3.63%.
